Laboratory results as given in ChEMBL document CHEMBL4888484, “Replenishing the malaria drug discovery pipeline: Screening and hit evaluation of the MMV Hit Generation Library 1 (HGL1) against asexual blood stage Plasmodium falciparum ,using a nano luciferase reporter read-out” (2022).
The campaign covered roughly 150,000 compounds. About 540 (0.36%) showed an effect of 50% or more. The list shows a part of the results.

Test system: Plasmodium falciparum
Experiment: Primary screen in NF54 nanoGlo assay, in single point, at 2uM, 72h; a lower Z score goes with more inhibition
Format: functional, Erythrocyte
Conditions: timepoint 72 hour

Compound	% Inhibition [%]	Z score
Cc1ccc2c(c1)C(NC(=O)N(C)CCCn1ccnc1)C(C)C2 (configuration not stated)	-14	1.48
CCN(CC)C(=O)[C@H](C1CCCC1)N1CCN(C(=O)C2CCCC2)CC1	-14	1.74
CN(CCN(C)S(=O)(=O)Cc1cc(F)ccc1Cl)C1CCCC1	15	-1.94
CC(C)(C)c1ncsc1C(=O)NCc1nc(C2CC2)cs1	-5	0.61
Cc1ccc(-c2ccc(N3CCN(S(=O)(=O)c4cccnc4)CC3)nn2)c(C)c1	5	-0.87
O=C(C1CCOCC1)N1CCC[C@H](C(F)(F)F)C1	-5	1.09
CC(C)(CO)NC(=O)c1ccc(OC2CCOCC2)nc1	0	0.09
COCC1(C(=O)NCCc2ccccc2Oc2ccccc2)CCC1	-3	0.26
CN1CN(C(=O)C(C)(C)C(F)F)CC1=O	-2	0.4
Clc1ccc(OC[C@H]2CCCO2)nc1	-9	1.24
CC[C@H](C)c1ccc(NC(=O)CN2CCC3(CC2)C(=O)NCCCN3C)cc1	5	-0.61
Cc1cnc(C2CCC2)n1CCNC(=O)c1cnn(C)c1	11	-1.35
COc1ccc(F)cc1-c1c(C)nc2[nH]nc(N)c2c1C	5	-0.88
Cc1ccc(S(=O)(=O)CC(=O)Nc2nnc(C[C@H](C)c3ccccc3)s2)cc1	-5	0.67
O=C(c1cnn2c(C(F)(F)F)cc(-c3cccs3)nc12)N1CCOCC1	-3	0.59
CCc1ccc(-n2ncc(-c3cc(C(=O)Nc4cccc(C)c4C)c4ccccc4n3)c2C)cc1	6	-0.91
CC(C)N1CCC(CC(=O)N2CCc3ncccc3C2)CC1	-16	2.99
CC(C)(C)c1ccc(Cn2c(C(=O)Nc3ccc(C(F)(F)F)cc3)cc3cc(NC(=O)c4ccco4)ccc32)cc1	3	-0.45
CCN(C)Cc1cccc(CNCc2cccc3c2OCO3)c1	-8	1.42
CC(NCC1(O)CCN(C)C1)c1ccc(Cl)cc1 (configuration not stated)	-7	1.09
CNC(=O)Cn1cc(NC2CCCC(c3ncccc3C)C2)cn1 (configuration not stated)	5	-0.73
Oc1ccc2ccccc2c1-c1nc2ncccn2c1Nc1ccccc1	-3	0.48

Compound	% Inhibition [%]	Z score
CC(C)(C)OC(=O)N1CCC(C)(c2nc([C@H]3CCOC3)no2)CC1	0	-0.03
COC(C)CN1CCOCC1C(N)=O (configuration not stated)	6	-0.73
O=C(c1cccc2cc[nH]c12)N1CCC(N2CCC[C@H](O)C2)CC1	7	-1.09
COCc1c(C(=O)NCC2CC3C=CC2C32CC2)c(=O)cc(C)n1CCc1cccc(Cl)c1 (configuration not stated)	-10	1.75
CC1(C)O[C@H]2[C@@H](O1)[C@@H](C(=O)Nc1nccs1)O[C@@H]1OC(C)(C)O[C@@H]12	-11	1.27
CC(C)N(CCOCCO)C(=O)Nc1cc(Cl)ccc1F	-7	1.4
COC1(c2noc(CCn3cccn3)n2)CCC1	-3	0.48
Cc1ccccc1-c1noc(CN2C[C@@H]3CC[C@H](CC2=O)N3)n1	-8	0.93
COCCN1C(=O)c2ccccc2N[C@@H]1c1ccc(OCc2ccncc2)c(OC)c1	-8	0.73
O=C(CNC(=O)N1CCCC1)Nc1cc(-c2cccs2)on1	1	-0.2
Cn1cc(C(=O)NC2CCN(Cc3nnsc3Cl)CC2)cn1	-6	1.11
Cc1n[nH]c([C@H]2CCN(Cc3ccc[nH]3)C[C@H]2NC(=O)C2CCOCC2)n1	-15	1.95
CC(CCn1cccn1)NC1CCc2c(O)cccc21 (configuration not stated)	1	-0.1
O=C([C@@H]1Cc2ccccc2S(=O)(=O)N1)N1CCc2c(Cl)cccc2C1	2	-0.26
CC(C)(C)c1nnc(NCCc2cccc(C(N)=O)c2)s1	-16	2.22
CCOC(=O)c1c(C)[nH]c(C(=O)N2CCC[C@H](C(=O)NCc3ccccc3Cl)C2)c1C	0	0.04
CC(C)(C)OC(=O)N/N=C(\Cc1ccc(Cl)cc1)NCc1ccco1	-13	1.43
CCc1nnc(NC(=O)NCc2c[nH]nn2)s1	31	-4.24
CC(C)Cc1nc(C(=O)NC(C)(C)CN2CCOCC2)cs1	-2	0.26
CCC[C@H]1COCCN1Cc1ncc[nH]1	-11	2.1
CN(C)c1ccc([C@H]2CC3(C)NC(=O)C2C(=O)N3)cc1	-8	1.07
O=C(Cc1cccs1)N1CCC[C@H](n2ccc(C(F)(F)F)n2)C1	6	-1.09

Compound	% Inhibition [%]	Z score
CN1C2CCC1CN(C(=O)NC(c1ccccc1)C1CCCO1)CC2 (configuration not stated)	-2	0.18
O=C(O)C1(n2cnc3ccccc32)CCN(c2nnnn2-c2ccccc2)CC1	7	-0.79
COC[C@@H]1C[C@H](OC)CN1C(=O)C1CCC(O)CC1 (some centres not stated)	-14	1.69
CN(C)c1ncccc1N(C)C(=O)c1cscn1	-11	1.54
Cc1cccc2c3c([nH]c12)CCN(C(=O)CCn1nnnc1C)C3	-1	0.16
Cc1ccc(NS(=O)(=O)c2cc(C(=O)NCCCn3ccnc3)ccc2Cl)c(C)c1	-34	4.04
Cc1ccncc1C(=O)Nc1ccccc1OC[C@H]1CCCO1	-3	0.55
Cc1nc([C@@H](c2cccc(F)c2)N(C)C)n(CCO)n1	-6	0.95
O=C(CCN1CCC[C@H]1c1ccccc1)NCc1cccs1	-11	1.83
COC(=O)c1nc(CCNc2nc(C)nc(C)c2C)sc1C	5	-1.02
CCOc1cccc(Cn2cc(C(N)=O)nc2C2CC2)n1	-8	0.72
O=C(COc1cccc(Cl)c1)OCC(=O)N(C1CCCCC1)[C@H]1CCS(=O)(=O)C1	-4	0.66
Cc1ccc(C)c(OCC(=O)N2CCN(C(=O)[C@@H]3CCCO3)CC2)c1	-40	4.73
C[C@@H](c1nccs1)N(C)C(=O)c1ccc(NCc2nc3ccccc3n2C)cc1	-1	0.18
O=C(Cc1cccs1)N1CCN(C(=O)c2cnn3ccccc23)CC1	-12	1.91
Cc1nc(N(C)C)sc1C(=O)N1CCNCC1	-4	0.45
O=C(N[C@H]1CCOC[C@@H]1OCc1ccccn1)c1cnc2cccnn12	-9	1.49
Cc1cc(C)cc(OC[C@@H](O)CNC(C)(C)CC(C)(C)C)c1	-3	0.43
Cc1csc(N2CCC(Nc3cnn(C)c3)CC2)n1	-7	0.74
CO[C@H]1CN[C@@H](C(=O)N(C)Cc2cc(C)ccc2C)C1	2	-0.36
Cc1ccc(Cl)cc1N1CCN(C(=O)c2cc(C3CC3)n[nH]2)CC1	-20	2.44
Cc1ccc2c(CC(=O)NCC(C)(C)c3ccccn3)c[nH]c2c1	-3	0.44

Compound	% Inhibition [%]	Z score
Cc1ccc(C)c(OCCON=C(N)Cc2csc(C)n2)c1	-2	0.24
O=S(=O)(Cc1ccon1)N1CCN(CC#Cc2ccccc2)CC1	3	-0.43
CCC(=O)N1CCc2sc(C(=O)N3CCN(c4ccccc4)CC3)cc2C1	-10	1.58
CN1CCN(C(=O)c2cc(Cc3ccccc3)n[nH]2)c2ccccc2C1	-8	1.09
Cc1ccc2nc(C[C@H]3CN(C(=O)Cc4ccccc4)CC[C@H]3CC(=O)O)[nH]c2c1	-1	0.16
Nc1nnnn1CC(=O)N1CCN(Cc2ccc3c(c2)OCO3)CC1	-7	1.26
Cc1nn(C(C)C)cc1C(=O)N(CCO)CC1CCCCC1	-9	1.13
CC(C)c1nc(CN(C)[C@H]2CCOC3(CCOCC3)C2)cs1	-2	0.27
CC(C)C(=O)NCCn1nc(-c2ccc(F)cc2)n(C2CC2)c1=O	-13	2.64
Cc1ccc(NC(=O)c2cnn3c2CCCC3)cc1	-5	0.86
Cc1csc(C(=O)N2CCN(c3ncc(F)cn3)C(=O)C2)c1	6	-1.07
COc1cc(-c2nc(CN(Cc3cccnc3)C[C@@H]3CCC(=O)N3)c(C)o2)cc2c1OCO2	-6	0.98
Cc1c(Br)c(=O)n(C)c(=O)n1C	-5	0.67
O=C(NCc1cnc2n1CCOC2)c1cscc1C(F)F	-4	0.4
CC(C)(C)C(=O)N1CC(CN2C(=O)COC2=O)C1	8	-1.11
O=C(CN1CCN(CC=Cc2ccc(Cl)cc2)CC1)NC1CC1	-13	1.2
C[C@H](C(=O)Nc1ccnn1-c1ccncc1)C1CCOCC1	-17	1.95
CN1CCN(C(=O)CCc2ccsc2)CC1	-8	0.9
COCC(=O)N[C@@H]1CCC[C@@H](C(=O)N(C)Cc2cccnc2)CC(=O)N(C)C1	2	-0.3
O=S(=O)(Nc1ccnc2ccncc12)c1ccc2c(c1)OCCCO2	-2	0.21
